About 340 (0.77%) of roughly 44,000 compounds were called active. Not shown: some 5% with an inconclusive outcome. The call rests on the fitted dose curve; in most records, active means well fitted inhibition curve with a large enough effect; inconclusive means small, poorly fitted or top-dose-only effect; inactive means flat fitted curve, though single readings scatter. The list shows a part of the results.
Experiment: Acumen qHTS Assay for Inhibitors of the mTORC1 Signaling Pathway in MEF (Tsc2-/-, p53-/-) Cells: Sytravon;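 further: plate controls were DMSO for no effect and rapamycin for full effect; nearly all actives have a fitted effect of over 50% in size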
Details: phospho-rpS6 immunofluorescence/PI, 24 h; series mostly up to 38.3 µM; activity change, negative = inhibition: at the top concentration
Summary of the method: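 Read-out: phospho-S6 Alexa-488 intensity over PI intensity per well, scored as % active cells using thresholds from rapamycin (7.5 nM) and DMSO controls. Tsc2-/-, p53-/- MEFs exposed to compound for 24 h; PI cell count recorded as viability.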

Activity change, negative = inhibition, inactive:
CCOC(=O)C1CCCN(C(=O)c2ccccc2NC(=O)c2nsc3ccccc23)C1 (stereo not given) -9.85%
Cc1nnc2c3ccccc3nc(N3CCN(c4ccccc4)CC3)n12 1.63%
O=C(c1ccc2c(c1)N(Cc1cccc(Cl)c1)C(=O)c1ccccc1S2(=O)=O)N1CCCC1 -3.85%
Cc1ccccc1Cn1nnc2c(=O)[nH]c(C3CCCN(C(=O)c4ccc(C(C)(C)C)cc4)C3)nc21 (stereo not given) -3.4%
N#Cc1c(-c2ccccc2)cc(-c2ccccc2)nc1SCC(O)CS(=O)(=O)Cc1ccccc1 (stereo not given) 10.2%
CCOCCCNC(=O)C1CCCN(c2ncnc3onc(C)c23)C1 (stereo not given) -4.91%
O=C(CCc1ccccc1)N(Cc1cccnc1)c1nc2ccc(F)cc2s1 -10.7%
CCN(CC)C(=O)CSc1nc2c(c(=O)n(C)c(=O)n2C)n1Cc1ccccc1 2.41%
CCOc1ccc(NC(=O)c2cnn(-c3ccccc3)c2-n2cccc2)cc1 -7.14%
COc1ccc2c(c1)c1c(c(=O)n(-c3ccc(C)cc3)c(=O)n1CC(=O)c1ccc(Cl)cc1)n2C 0.165%
COc1ccc(NC(=O)Cn2cc(S(=O)(=O)N3CCC(C)CC3)c3ccccc3c2=O)cc1Cl -23.5%
Cc1ccc(C)c(CNS(=O)(=O)c2ccc3c(c2)C(C)(C)C(=O)N3C)c1 0%
Cc1ccccc1C(=O)Nc1cccc(OCc2cc(=O)n3c4c(sc3n2)CCCC4)c1 -7.13%
CCOc1ccc(NC(=O)c2ccc3[nH]c(C)cc(=O)c3c2)cc1 2.53%
COc1cccc(CNS(=O)(=O)c2ccc3[nH]c4c(c3c2)CCCCC4)c1 -8.42%
Cc1ccc(C)c(N2CCN(C(=O)c3ccc(-c4nc(COc5ccccc5)c(C)o4)cc3)CC2)c1 -11.3%
COc1ccc2c(CNCCc3ccccc3C)c(C(=O)O)n(Cc3ccccc3C)c2c1 4.37%
CCOC(=O)c1c(S(=O)(=O)N2CCCC(C(=O)NCc3ccc(F)cc3)C2)c(C)n(CC)c1C (stereo not given) 0.705%
COc1ccc(CN(Cc2ccco2)C(=O)COc2ccc(Cl)cc2C)cc1 0.766%
Cc1ccc2c(c1)cc1c(=O)n(CC(=O)N(C)c3ccccc3)nc(C)n12 0.762%
CC(=O)N1CCc2c(sc3c2c(=O)n(-c2cccc(Cl)c2C)c(=O)n3Cc2ccccc2C)C1 0.0909%
COc1cccc(-c2nnc(SCC(=O)N3CCCCC3)o2)c1 2.54%
COc1ccc(CNC(=O)C2CCCN(S(=O)(=O)N(C)c3ccc(F)cc3)C2)cc1OC (stereo not given) -13.4%
O=C(OCc1cc(=O)n2nc(-c3cccs3)sc2n1)c1cccc(Cl)c1 -4.8%
CCOC(=O)c1cccc(NC(=O)c2ccc3c(c2)nnn3CC)c1 0.499%
Cc1ccc(C)c(Cn2c(=O)n(CC3CCC(C(=O)N4CCOCC4)CC3)c(=O)c3sccc32)c1 (stereo not given) 3.87%
Cc1ccc(NC(=O)Cn2c(=O)c(C(F)(F)F)nc3ccccc32)cc1C 2.65%
CCOC(=O)c1ccccc1NC(=O)Cn1nnc2sc3c(c2c1=O)CCCC3 0.75%
Cc1ccc(C(C(=O)NC2CCCCC2)N(C)Cc2ccccc2)cc1 (stereo not given) 1.32%
Cc1oc2c(c1C(=O)Nc1ccc(F)c(F)c1)C1=NCCN1C=N2 0.216%
CCc1cccc(CC)c1NC(=O)CCS(=O)(=O)c1ccc(Br)s1 -8.74%
Cn1cc(-c2cc3n(n2)CCC(=O)N3CCCC(=O)NCc2ccc(F)cc2)c2ccccc21 -18.6%
CCOC(=O)c1ccccc1Nc1nc2ccc(C)cc2n2nnnc12 -0.929%
Cc1cccc(C)c1NC(=O)c1nc(S(C)(=O)=O)ncc1N(Cc1ccc(C(C)(C)C)cc1)Cc1ccco1 0%
CCOc1ccc(NC(=O)c2oc3ccccc3c2NC(=O)C2CCCCC2)cc1 -0.296%
CCN1CCN(Cc2c(O)ccc3oc(C)c(C(=O)Nc4ccc(OC)cc4)c23)CC1 5.71%
Cc1ccc(NC(=O)CSc2nc3nc(C)c(Cc4ccccc4)c(C)n3n2)cc1 6.92%
CC(C)CNC(=O)N1CCN(S(=O)(=O)c2ccc3c(ccn3C)c2)CC1 -22.4%
Cc1ccc2oc3c(c(=O)c2c1)C(c1ccccc1F)N(c1ccccn1)C3=O (stereo not given) 8.75%
COc1ccc(Cn2ccnc2SCC(=O)Nc2ccc3c(c2)OCO3)cc1 -8.78%
COc1ccc(-c2cc(C(F)(F)F)n3nc(C(=O)Nc4cc(C(F)(F)F)ccc4Cl)cc3n2)cc1OC 7.35%
CN(C)c1ccc(CN(Cc2ccco2)C(=O)COc2ccc(F)cc2)cc1 -25.4%
Cc1ccc(NC(=O)N2CC3CCCN3c3ccccc32)cc1C (stereo not given) -7.31%
COc1ccc(C(=O)Nc2ccc(NC(=O)c3cccs3)cc2)cc1OC 1.6%
CC1CCN(S(=O)(=O)c2ccc3c(c2)CCN3C(=O)Nc2cccc(Br)c2)CC1 0.129%
Cc1ccc(-c2nc3n(n2)C(c2ccccc2Cl)C=C(c2ccc(Cl)cc2)N3)cc1 (stereo not given) 7.01%
Cc1ccc(S(=O)(=O)NC2(C(F)(F)F)NC(=O)N(c3ccc(F)cc3)C2=O)cc1 (stereo not given) 1.53%
CCOC(=O)c1ccc(CN(Cc2ccc(C)cc2)S(=O)(=O)c2ccc(F)c(C(=O)Nc3ccc(C)c(F)c3)c2)cc1 7.27%
CCOc1ccc(C(=O)c2cn(CC(=O)Nc3ccc(OC)cc3)c3cc4c(cc3c2=O)OCO4)cc1 -11.2%
O=C(NCC(c1ccc2c(c1)OCO2)N1CCN(c2ccccc2)CC1)C(=O)Nc1ccc(F)cc1 (stereo not given) -8.55%
CCOC(=O)c1c(C)[nH]c(C)c1S(=O)(=O)N1CCCC(C(=O)Nc2ncccc2C)C1 (stereo not given) -0.454%
Cc1oc(-c2ccc(C(=O)NCCC(C)C)cc2)nc1CS(=O)(=O)c1ccccc1 0%
CC(C)CCn1c(=O)c2cccnc2n(CC(=O)Nc2ccccc2)c1=O -12.6%
N#Cc1c[nH]n2c(NC3CCCC3)c(-c3cccc(Br)c3)nc12 -25.9%
COC(=O)c1sccc1S(=O)(=O)N(CC(=O)NCc1ccc(C)cc1)c1ccccc1 5.8%
CCCC(=O)N1CCc2cc(OC)c(OC)cc2C1COc1ccccc1OC (stereo not given) 8.74%
CCOC(=O)Cc1cc(C(=O)Nc2ccc(Br)cc2)sc1-c1ccc(C)cc1 2.58%
Cc1nc2sc(C)c(C)n2c(=O)c1S(=O)(=O)N1CCN(c2ccccc2F)CC1 -0.55%
Cc1cc(C)cc(OCC(=O)Nc2nonc2-c2ccc(Br)cc2)c1 1.46%
Cc1c(C(=O)N(Cc2ccc(N(C)C)cc2)CC2CCCO2)oc2ccccc12 (stereo not given) 3.97%
Cc1ccc2c(Sc3ccc(Cl)cc3)c(C(=O)NCCC(C)C)[nH]c2c1 0.728%
CCCSc1ncc(Cl)c(C(=O)Nc2ccc(S(=O)(=O)N3CCCC(C)C3)cc2)n1 (stereo not given) -9.19%
CCc1nnc(SCc2nc(-c3ccccc3Cl)oc2C)c2cc3sc(C)cc3n12 -2.57%
O=C(Nc1nc2c(F)cccc2s1)c1ccc(S(=O)(=O)N2CCOCC2)cc1 4.91%
Cc1ccc(NC(=O)CN2C(=O)c3cccnc3Sc3ccccc32)cc1C -6.87%
COc1ccc(CN(C(=O)c2ccccc2F)C2CCS(=O)(=O)C2)cc1 (stereo not given) -0.102%
CC(=O)N1c2ccc(S(=O)(=O)N3CCCCCC3)cc2CC1C(=O)NCc1ccccc1 (stereo not given) 0%
O=C(Nc1ccc2oc(-c3ccccc3)nc2c1)c1ccc2ccccc2c1 3.68%
COc1cc2c(cc1OC)C(COc1ccc3c(C)cc(=O)oc3c1)N(C(=O)c1cccc(OC)c1OC)CC2 (stereo not given) 3.71%
COc1ccc2c(c1)c1c(c(=O)n(Cc3ccccc3)c(=O)n1CC(=O)Nc1cc(C)cc(C)c1)n2C -2.65%
CCOc1ccc(NC(=O)N2CCC(CN3CCCCCC3)CC2)cc1 -9.18%
Cc1cccc(N2CCN(C(=O)c3ccc4c(c3)c(C)c(C)n4C)CC2)c1C -3.94%
Cc1cc(C)cc(NC(=O)CSc2oc(-c3ccco3)nc2S(=O)(=O)c2ccccc2)c1 4.49%
Cc1ccc2c(n1)sc1c(=O)n(-c3cccc(C(F)(F)F)c3)nnc12 -1.94%
Clc1ccc(OCc2nc(-c3ccc(-n4cccc4)cc3)no2)cc1 4.51%
Cc1ccc(Cl)cc1NC(=O)CCCn1c(=O)c2cccn2c2ccccc21 1.83%
COc1ccc(-c2nc3scc(CCNS(=O)(=O)c4cc(F)ccc4OC)n3n2)cc1OC 1.17%
CN(C(=O)CSc1nnc(-c2ccc([N+](=O)[O-])cc2)o1)C1CCCCC1 -1.39%
Cc1ccc(CN2CCSc3ccc(C(=O)Nc4cc(C)cc(C)c4)cc32)cc1 -16.9%
CC(=O)N1CCc2c(sc3nc(SCC(N)=O)n(-c4ccc(F)c(Cl)c4)c(=O)c23)C1 5.78%
Clc1ccc(Nc2c(-c3cccs3)nc3ccc(Cl)cn23)cc1 -0.0946%
COc1ccc(CCNC(=O)Cn2c(=O)cc(C(F)(F)F)c3c(C)nn(C)c32)cc1OC 3.83%
CCc1cccc(NC(=O)c2cc3c(=O)[nH]c4ccccc4c3n2C)c1 -5.57%
CCOC(=O)c1sc2nc(C)n(CC(=O)Nc3cccc(Cl)c3)c(=O)c2c1C 3.32%
Cc1ccc(C)c(CSC2=NC(C)(C)Nc3ccccc32)c1 -4.5%
COc1ccc(CN(C)S(=O)(=O)c2nnc(NC(=O)C(C)C)s2)cc1OC 0%
CC(=O)c1cccc(NC(=O)CSc2nnc3ccc(-c4ccc(Cl)cc4)nn23)c1 5.81%
COc1ccccc1NC(=O)C1=C(C)Nc2nc(SCc3ccccc3F)nn2C1c1cccnc1 (stereo not given) 0%
Cc1ccc(Cl)cc1NC(=O)c1sc2nc(-c3ccccc3)cn2c1C -11.2%
C=CCc1c(C)nc2nc(SCC(=O)Nc3cccc(Cl)c3)nn2c1C 4.19%
CC(C)CN(CC(C)C)c1nc(-c2ccc(Cl)cc2)nc2ccccc12 2.4%
CCOC(=O)c1c(C)oc2nc(C)nc(N(CC(C)C)CC(C)C)c12 0.273%
O=C(NCCCN1CCN(c2ccc(F)cc2)CC1)C1COc2ccccc2C1 (stereo not given) -5.98%
COc1ccc(Cl)cc1NC(=O)Cn1c(=O)n(Cc2nc(C)no2)c(=O)c2ccccc21 -4.85%
CCc1ccc(NC(=O)c2ccc3c(=O)n4nc(Nc5ccccc5C)sc4nc3c2)cc1 -2.15%

Reference: PubChem BioAssay AID493208 (National Center for Advancing Translational Sciences (NCATS), 2011)
